Results reported in PubChem BioAssay AID540317 (National Center for Advancing Translational Sciences (NCATS), 2011).
In all, about 390,000 compounds went through this assay and about 2,200 (0.56%) were called active. Inconclusive results, whose numbers are uncertain, are shown with a selection of clear calls. Calls follow the shape of the dose curve; as a rule, active = well fitted inhibition curve with a large enough effect; inconclusive = small, poorly fitted or top-dose-only effect; inactive = no such curve, though single readings can be large or run the other way. Potencies beside an inconclusive call are fits to weak or partial responses and may not hold up.

Target: Chromobox protein homolog 1 (Homo sapiens) (UniProt P83916)
UniProt P83916, sequence (P83916 whole entry, looked up): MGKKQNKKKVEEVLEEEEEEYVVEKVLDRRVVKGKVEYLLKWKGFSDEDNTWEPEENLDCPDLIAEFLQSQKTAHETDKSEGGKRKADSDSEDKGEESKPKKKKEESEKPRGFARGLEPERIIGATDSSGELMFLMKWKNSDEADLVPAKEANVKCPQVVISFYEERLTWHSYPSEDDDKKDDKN
Assay: HTS for Inhibitors of HP1-beta Chromodomain Interactions with Methylated Histone Tails; also: nearly all actives have a fitted effect of over 70% in size
Settings: AlphaScreen HP1-beta / biotin-H3K9me3 peptide binding; series mostly up to 114 µM
Method in brief: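 Compound inhibition of the preformed complex between 50 nM HP1-beta and 50 nM biotinylated H3K9me3 peptide was read by AlphaScreen. Buffer was PBS pH 7.4 with 0.01% Tween-20. Incubations ran 30 min at room temperature, with 10 ug/mL donor/acceptor beads.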
Potency is read from the fitted curve at half-maximal effect; tags tell the direction and shape of the fitted curve.

SMILES	Potency
OCCN(Cc1ccccc1)Cc1cccc(C(F)(F)F)c1	inconclusive: 56.2 µM [inhibitor, single point]
CCOC(=O)c1[nH]cc(-c2ccccc2)c1N1CCOCC1	inconclusive: 25.1 µM [inhibitor, partial curve, poor fit]
Cc1ccc(S(=O)(=O)c2cc3ccccc3oc2=Nc2ccc3c(c2)OCCO3)cc1	inconclusive: 2.82 µM [inhibitor, partial curve, poor fit]
CC(=O)c1ccc(NC(=O)Nc2ccc([N+](=O)[O-])cc2C)cc1	inconclusive: 25.1 µM [inhibitor, single point]
CCn1c(P(C)(=O)O)nc2cc(NC(=O)c3ccccc3Cl)ccc21	inactive
Cc1ccc(C(=O)CSc2ccccn2)cc1	inactive
O=C(c1ccco1)N1CCC(N2CCN(c3ccccc3)CC2)CC1	inconclusive: 15.8 µM [inhibitor, partial curve, poor fit]
O=C(Nc1ccccn1)c1cccs1	inconclusive: 7.08 µM [inhibitor, single point]
CCOC(=O)N1CCN(Cc2nc3ccc([N+](=O)[O-])cc3c(=O)n2-c2ccccc2F)CC1	inactive
CC1(C)CC2CC(C)(CN2/C=N/c2sc3c(c2C#N)CC(C)(C)NC3(C)C)C1 (centres undefined)	inconclusive: 79.4 µM [inhibitor, single point]
Cc1ccc(/C=N/Nc2nc(C(C)(C)C)cs2)o1	inconclusive: 44.7 µM [inhibitor, partial curve]
Cc1sc(NC(=O)c2cccc([N+](=O)[O-])c2)c(C(N)=O)c1-c1ccc(C(C)(C)C)cc1	inconclusive: 25.1 µM [inhibitor, single point]
COc1ccc(-c2nc3ccccn3c2Nc2ccccc2C)cc1	inconclusive: 35.5 µM [inhibitor, partial curve]
Cc1ccccc1NC(=S)NC(=O)c1cncc(Br)c1	inconclusive: 39.8 µM [inhibitor, partial curve, poor fit]
CC(=O)c1ccc(NC(=O)c2noc3c2CCC3)cc1	inconclusive: 79.4 µM [inhibitor, partial curve]
CN1C(C(=O)c2ccccc2)=C(NC(=O)c2ccc(F)cc2)c2ccccc2S1(=O)=O	inactive
COc1ccc(CNc2nc3c(c(=O)n(Cc4ccc(Br)cc4)c(=O)n3C)n2C)cc1	inconclusive: 17.8 µM [inhibitor, partial curve, poor fit]
COc1ccccc1NC1=C(N2CCCCC2)C(=O)c2ccccc2C1=O	inconclusive: 10 µM [inhibitor, full curve, poor fit]
COC(=O)CSc1nc(C(C)C)nc2ccccc12	inactive
Nc1ccc(Oc2ccccc2-c2ccccc2)cc1	inconclusive: 50.1 µM [inhibitor, partial curve]
CCN(CC)CCSc1nc2c([nH]1)c(=S)n(C)c(=O)n2C	inactive
Cc1ccc(S(=O)(=O)NCC(c2cccnc2)N2CCOCC2)cc1 (centres undefined)	inconclusive: 39.8 µM [inhibitor, single point]
Cc1cc(=O)oc2cc(OCC(=O)N3CCN(c4ccc(F)cc4)CC3)ccc12	inconclusive: 28.2 µM [inhibitor, full curve]

SMILES	Potency
CCOc1ccc(-c2nnc(-c3ccncc3)o2)cc1	inconclusive: 39.8 µM [inhibitor, single point]
O=C(O/N=C\c1ccc(N2CCCCC2)c([N+](=O)[O-])c1)c1cccc(Cl)c1	inconclusive: 31.6 µM [inhibitor, partial curve]
O=C(CCC1CCCC1)N1CCN(C2CCCC2)CC1	inconclusive: 35.5 µM [inhibitor, partial curve]
Cc1ccc(S(=O)(=O)Nc2ccc(O)c3ccccc23)c(C)c1	active: 50.1 µM
Cc1ccc(S(=O)(=O)Nc2ccc3nc(C)sc3c2)cc1	inactive
CCOc1ccc(Br)cc1C1C(C(=O)OC)=C(C)NC2=C1C(=O)c1ccccc12 (centres undefined)	inconclusive: 20 µM [inhibitor, full curve]
O=[N+]([O-])c1ccccc1S(=O)(=O)Oc1ccc(C(=S)N2CCOCC2)cc1	inconclusive: 14.1 µM [inhibitor, partial curve, poor fit]
S=c1[nH]nc(COc2ccccc2)n1/N=C/C=C/c1ccco1	inconclusive: 17.8 µM [inhibitor, full curve]
O=C(NCCCN1CCc2ccccc2C1)Nc1ccc(Br)cc1	inconclusive: 28.2 µM [inhibitor, partial curve, poor fit]
CCC(=O)N1CCc2cc(Br)cc(S(=O)(=O)N3CCCC(C(=O)Nc4cc(C)ccc4OC)C3)c21 (centres undefined)	inactive
NC(=S)Cc1nc(-c2ccc(Cl)cc2)cs1	inconclusive: 10 µM [inhibitor, partial curve, poor fit]
CCCC(C)c1nnc(NC(=O)C2CC(=O)N(CCc3ccc(F)cc3)C2)s1 (centres undefined)	inconclusive: 31.6 µM [inhibitor, partial curve, poor fit]
COc1cc(OC)c(NC(=O)c2c(N3CCCC3=O)c3cc(C)ccc3n2C)cc1Cl	inactive
C=CCn1c(C)cc(C(=O)COC(=O)c2ccc3c(c2)NC(=O)CS3)c1C	inconclusive: 39.8 µM [inhibitor, partial curve]
O=C(CO)N/N=C/c1c2ccccc2cc2ccccc12	inconclusive: 50.1 µM [inhibitor, partial curve]
Cc1ccc(S(=O)(=O)NCC(=O)NCC(=O)OCC(=O)N2CC(=O)Nc3ccccc32)cc1C	inconclusive: 35.5 µM [inhibitor, single point]
CN=c1scc(-c2ccco2)n1/N=C/c1ccc(O)c(O)c1	inconclusive: 28.2 µM [inhibitor, partial curve]
CCN(CC)c1ccc(N2C(=O)/C(=C/c3cccnc3)SC2=S)cc1	inconclusive: 22.4 µM [inhibitor, partial curve, poor fit]
Cc1noc(C)c1CN1C(=O)NC2(CCCCCCC2)C1=O	inactive
Cc1cc(=O)n2nc(N3CCC(C(=O)Nc4c(C)cccc4C)CC3)sc2n1	inactive
COC(=O)c1sccc1S(=O)(=O)Nc1ccc(N2CCCCC2)cc1	inconclusive: 50.1 µM [inhibitor, partial curve]
O=C(N/N=C/c1ccc2c(c1)OCO2)c1ccc(Br)o1	inactive
N#Cc1ccc(N2C(=O)[C@@H]3C(C(=O)c4ccc5ccccc5n4)=NN[C@@H]3C2=O)cc1	inactive

SMILES	Potency
N#C/C(C(=O)NCc1ccccc1)=C1/N=C(NC(=O)c2cccs2)c2ccccc21	inconclusive: 28.2 µM [inhibitor, single point]
N#CCCN1CCN(C(=S)c2ccc(-c3cccc(Cl)c3)o2)CC1	inconclusive: 22.4 µM [inhibitor, full curve, poor fit]
CN(C)Cc1nc2ccccc2c(=O)n1Cc1nc(-c2cccc([N+](=O)[O-])c2)cs1	inconclusive: 14.1 µM [inhibitor, partial curve, poor fit]
C/C(=N\N=C1\NC(=O)C(Cc2ccccc2)S1)c1ccccc1 (centres undefined)	inconclusive: 39.8 µM [inhibitor, single point]
COC(=O)/C=C\C(=O)Nc1cccc([N+](=O)[O-])c1	active: 10 µM
CCC(=O)N1CCc2cc(S(=O)(=O)NCCC(=O)Nc3cc(C)cc(C)c3)ccc21	inconclusive: 39.8 µM [inhibitor, single point]
CCOC(=O)c1sc(NC(C)=O)nc1C	inconclusive: 17.8 µM [inhibitor, partial curve, poor fit]
COc1ccc(CN2CCN(S(=O)(=O)c3ccc(C)cc3)CC2)cc1OC	inconclusive: 39.8 µM [inhibitor, partial curve]
COc1ccc2c(CC(=O)OCC(=O)Nc3ccc4c(c3)OCO4)coc2c1	inconclusive: 4.47 µM [inhibitor, full curve, poor fit]
COC(=O)Oc1nsnc1N1CCOCC1	inconclusive: 25.1 µM [inhibitor, single point]
O=C(NCc1ccc(F)cc1)c1cccnc1C(=O)O	inconclusive: 50.1 µM [inhibitor, partial curve]
CSc1ccc(NC(N)=S)cc1	inactive
Cc1cccc(N/N=C/c2ccc(O)c(O)c2O)c1	inconclusive: 31.6 µM [inhibitor, full curve]
COc1cc(NS(=O)(=O)c2cc3c(cc2C)N(C)CCO3)cc(OC)c1OC	inactive
COc1cc(NC(=O)c2cccc(S(=O)(=O)N3CCCCC3)c2)cc(OC)c1OC	inactive
OCCNCCCCSc1ccc(Cl)cc1	inconclusive: 35.5 µM [inhibitor, partial curve]
Cc1ccc(CN2CCc3nc(Nc4ccc5c(c4)OCCO5)ncc3C2)cc1	inconclusive: 39.8 µM [inhibitor, partial curve]
O=C(CCN1C(=O)S/C(=C\c2ccccc2)C1=O)NCCCn1ccnc1	inactive
O=C(NCCNCc1cccs1)c1ccccc1F	inconclusive: 56.2 µM [inhibitor, single point]
Cc1ccccc1N1CCN(Cc2c[nH]c3ccccc23)CC1	inconclusive: 79.4 µM [inhibitor, partial curve, poor fit]
CCOC(=O)C1=C(C)NC(C)=C(C(=O)OCC)C1C	inactive
CCN(CC)CCOc1ccc(Br)cc1	inconclusive: 44.7 µM [inhibitor, partial curve, poor fit]
c1ccc(CNc2ccc(N3CCOCC3)cc2)cc1	inconclusive: 39.8 µM [inhibitor, partial curve]
